Laboratory results as given in paper PMC4336329 (PLoS ONE, 2015).
The whole screen tested about 310,000 compounds, of which about 14,000 (4.5%) showed an effect of 50% or more. Effects have a minus sign here. The list shows a part of the results.

These compounds were tested against human ether-à-go-go-related gene (hERG) potassium channel (human, UniProt Q12809) (assay: primary screen, population patch clamp on CHO cells stably expressing hERG).
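Further: peak tail current of the secondary pulse compared with the same well before compound.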

human ether-à-go-go-related gene (hERG) potassium channel, sequence (Q12809 whole entry, looked up): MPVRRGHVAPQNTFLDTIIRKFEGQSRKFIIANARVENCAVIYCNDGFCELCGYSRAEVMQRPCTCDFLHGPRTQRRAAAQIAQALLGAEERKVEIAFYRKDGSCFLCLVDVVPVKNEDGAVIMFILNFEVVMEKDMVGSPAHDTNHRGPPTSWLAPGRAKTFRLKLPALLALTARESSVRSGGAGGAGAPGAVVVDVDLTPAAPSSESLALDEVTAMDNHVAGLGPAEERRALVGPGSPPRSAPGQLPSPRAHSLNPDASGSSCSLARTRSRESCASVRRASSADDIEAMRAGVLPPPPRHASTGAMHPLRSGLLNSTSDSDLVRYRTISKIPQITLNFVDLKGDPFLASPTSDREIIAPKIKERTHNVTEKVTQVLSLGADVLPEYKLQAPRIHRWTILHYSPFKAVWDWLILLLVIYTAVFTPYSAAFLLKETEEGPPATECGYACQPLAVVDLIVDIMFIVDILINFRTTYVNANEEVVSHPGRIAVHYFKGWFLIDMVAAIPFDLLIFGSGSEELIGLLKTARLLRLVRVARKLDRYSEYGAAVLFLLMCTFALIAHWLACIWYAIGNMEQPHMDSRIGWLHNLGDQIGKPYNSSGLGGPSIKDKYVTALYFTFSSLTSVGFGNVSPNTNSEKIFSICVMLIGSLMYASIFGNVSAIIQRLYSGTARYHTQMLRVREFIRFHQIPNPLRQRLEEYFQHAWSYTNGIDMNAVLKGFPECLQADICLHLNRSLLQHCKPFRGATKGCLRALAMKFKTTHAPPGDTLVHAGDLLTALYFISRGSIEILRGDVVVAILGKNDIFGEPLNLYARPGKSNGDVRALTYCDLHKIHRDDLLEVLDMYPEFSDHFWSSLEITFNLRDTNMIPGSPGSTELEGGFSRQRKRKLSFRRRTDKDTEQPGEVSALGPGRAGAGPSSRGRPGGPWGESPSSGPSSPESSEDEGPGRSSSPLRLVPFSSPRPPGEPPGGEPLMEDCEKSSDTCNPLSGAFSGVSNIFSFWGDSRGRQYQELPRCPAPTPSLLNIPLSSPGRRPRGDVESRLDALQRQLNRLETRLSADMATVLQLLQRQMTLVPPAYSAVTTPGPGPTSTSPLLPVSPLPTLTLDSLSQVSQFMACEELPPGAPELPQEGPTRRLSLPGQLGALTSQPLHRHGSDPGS

| SMILES | hERG current change (%, negative = inhibition) at 10uM |
| --- | --- |
| COCCSc1nnc(NC(=O)COc2ccc3c(c2)OCO3)s1 | 13% |
| COc1cc(C)c(Cl)cc1S(=O)(=O)NCc1ccco1 | 2.33% |
| O=C1CC(C(=O)O)S/C(=N\NC(=O)c2ccccc2)N1 (stereo not drawn) | -1.06% |
| COc1ccc(N2C(=O)/C(=C/c3ccc(C)o3)C(=O)NC2=S)c(OC)c1 | 19.2% |
| CCOc1c(N2CCCCC2)c(=O)c1=O | 0.507% |
| Cc1ccc2c(c1)N(CC(=O)N1CCCCC1)C(=O)C(C)O2 (stereo not drawn) | 11.9% |
| Cc1cc2ncn(CC3CC3(Cl)Cl)c2cc1C (stereo not drawn) | -12.8% |
| Cc1cc(SCn2nnc3ccccc3c2=O)nc2ccccc12 | 12.4% |
| CCOc1cc(/C=N\NC(=O)c2ccc(NC(=O)C(C)(C)C)cc2)ccc1OC(=O)c1ccc(C)cc1 | 11.8% |
| CCn1c(SCC(=O)O)nnc1-c1cccnc1 | 7.11% |
| O=C(O)c1ccc2c(c1)C(=O)N(c1cccc(-c3nc4ccccc4s3)c1)C2=O | 5.79% |
| CCOC(=O)Cc1csc(NC(=O)CSc2nnc(-c3ccncc3)o2)n1 | 7.63% |
| O=C(O)C#Cc1cccc2ccccc12 | 29.8% |
| O=C(CN(Cc1ccc(F)cc1)S(=O)(=O)c1ccccc1)N1CCCCC1 | -26.8% |
| O=C(NCc1cccnc1)Nc1ccc(Br)cc1Cl | 2.79% |
| COc1ccccc1N(C(=O)c1ccco1)C(C(=O)NC1CCCCC1)c1cc(OC)c(OC)c(OC)c1 (stereo not drawn) | -9.89% |
| CCN(CC)c1ccc(-c2n[nH]c(=S)n2-c2ccccc2C)cc1 | 12.4% |
| Cc1ccc(NC(=O)CCC(=O)OCC(=O)c2ccc(Oc3ccc([N+](=O)[O-])cc3)cc2)cc1 | 13.1% |
| Cc1cc(C(=O)CSc2n[nH]c(N)n2)c(C)n1-c1cccc(F)c1 | -26.3% |
| COc1ccc(C(=O)[C@H]2[C@H]3C(=O)N(c4ccccc4)C(=O)[C@H]3C3C=CC=NN32)cc1 (stereo partly drawn) | 4.94% |
| Cc1cc(=O)[nH]c2c(C)c(N)ccc12 | 6.03% |
| CC(C)NC(=O)C1=NN(c2ccccc2)C(=O)CC1 | 24.3% |
| CCC(C)c1ccccc1NC(=O)c1[nH]c(C)c(C(C)=O)c1C (stereo not drawn) | -2.59% |

| SMILES | hERG current change (%, negative = inhibition) at 10uM |
| --- | --- |
| CC(C)(C)NC(=O)C(c1ccncc1)N(C(=O)CNC(=O)c1ccco1)c1ccc2c(c1)OCO2 (stereo not drawn) | 9.79% |
| CCOc1nc(-c2ccccc2O)nc2ccccc12 | 2.42% |
| CCCCN(C)CCCNC(=O)CC1Oc2ccccc2NC1=O (stereo not drawn) | -5.89% |
| Cc1nnc(SCC(=O)Nc2nnc(SCc3cccc(Br)c3)s2)s1 | 6.06% |
| COCCCN=C1NN=C(c2cc(C)n(-c3ccccc3F)c2C)CS1 | -17.1% |
| C=CCOC(=O)C1=C(C)NC(=S)C(C#N)(CC=C)C1c1ccccc1Cl (stereo not drawn) | 8.99% |
| COc1ccc(Br)cc1C(=O)Nc1ccccc1-c1ccccc1 | -2.5% |
| C=CCc1cccc2cc(C(=O)N(CC)CC)c(=O)oc12 | -6.47% |
| CCO.CSc1sc(C)cc1C1C(C#N)=C(N)N(c2cccnc2)C2=C1C(=O)CC(C)(C)C2 (stereo not drawn) | -42.3% |
| COc1cccc(-c2nnc(SCC(=O)Nc3ccc(S(N)(=O)=O)cc3)n2C)c1 | -12.8% |
| CC(=O)c1ccccc1OC(=O)COc1ccc(Cl)cc1C | 17.1% |
| O=S(=O)(Nc1c(S(=O)(=O)c2ccccc2)c2nc3ccccc3nc2n1C1CCCCC1)c1ccccc1 | -8.87% |
| S=C1NCN(Cc2cccnc2)CN1 | 14.2% |
| CCOc1cc(/C=N/NC(=O)C(=O)NCC2CCCO2)ccc1OCC(=O)N1CCOCC1 (stereo not drawn) | 3.3% |
| Cc1cc(C)n2c(nc3ccccc32)c1C(=O)NN | 4.99% |
| CCOC(=O)CSc1ncc(OC)c(Sc2ccc(Cl)cc2)n1 | 3.37% |
| O=C(CN(Cc1ccccc1Cl)C(=O)CNS(=O)(=O)c1ccc(F)cc1)NCC1CCCO1 (stereo not drawn) | -10.4% |
| Cc1ccc(S(=O)(=O)NCC(=O)OCC(=O)NCc2ccc(F)cc2)cc1 | -18.9% |
| COC(=O)c1ccccc1C(=O)N1CC(O)CO1 (stereo not drawn) | 16.5% |
| Cc1cc(C)c2nc(N3CCC(C(=O)NCCCN4CC(C)CC(C)C4)CC3)sc2c1 (stereo not drawn) | -71.8% |
| COc1ccc([C@H]2CC(=O)C=C(c3cccc(CO)c3)C2)cc1OC | -63.6% |
| CCNS(=O)(=O)c1ccc(NC(=O)c2cncc(Br)c2)cc1 | -15.3% |
| CCOc1ccc(CCNC(=O)CSc2nn(-c3ccc(C)c(Cl)c3)c(=S)s2)cc1OCC | 10.9% |

| SMILES | hERG current change (%, negative = inhibition) at 10uM |
| --- | --- |
| Cc1occc(=O)c1OCc1ccccc1 | -3.91% |
| CCCNC(=O)C(CC)NS(=O)(=O)c1ccc(OC)cc1 (stereo not drawn) | 9.22% |
| CC(C)[C@H](NC(=O)[C@@H]1CSC2c3ccccc3C(=O)N21)C(=O)N1CCCCC1 (stereo partly drawn) | 7.3% |
| CCOC(=O)CSCC(=O)Nc1nnc(-c2cccc([N+](=O)[O-])c2)s1 | -13.4% |
| O=S(=O)(Nc1cccc(-n2cnnn2)c1)c1ccc(Cl)cc1 | 16.7% |
| COc1cc(/C=C2\C(=N)N3N=C(S(=O)(=O)CC(C)C)SC3=NC2=O)ccc1OC(=O)c1ccco1 | 17.2% |
| COc1cc2ccccc2cc1C(=O)OCC(=O)N1CCOCC1 | 15.3% |
| COc1ccccc1Cn1c(CCCO)nc2ccccc21 | -8.81% |
| Nc1c(NCCc2ccccc2)c2ccccc2oc1=O | -11.9% |
| COc1ccc(NC(=O)CSc2nc(-c3ccncc3)nn2CC(=O)N2CCCC2)cc1 | -8.96% |
| CC(C)NC(=O)Cn1cc(C(=O)c2ccccc2)c2ccccc21 | 19.3% |
| CC(C)OCCCNC(=O)c1ccc(NC(=O)C2CCCO2)cc1 (stereo not drawn) | -10.6% |
| CCN1CCN(Cc2ccc(NC(=O)c3ccc(C)c(NC(=O)C4=NN(c5ccccc5)C(=O)C4)c3)cc2C(F)(F)F)CC1 | 13.6% |
| O=Cc1c(N2CCCCC2)nc2ccccn2c1=O | 9.69% |
| COCCn1nnnc1SCC(=O)c1ccc(F)cc1 | 12.3% |
| CCCCC1CCC(/C(N)=N/O)CC1 (stereo not drawn) | -0.0893% |
| CSC1=NCCN1C(=O)c1ccc(Br)o1 | 4.71% |
| Cc1ccc(NC(=S)NC2CCN(Cc3ccccc3)CC2)cc1C | -34.9% |
| O=C(NC1CCCCC1)C1CCCN(S(=O)(=O)c2cccc3cccnc23)C1 (stereo not drawn) | -9.85% |
| CCOC(=O)c1cn2nc(Oc3cccc(C(F)(F)F)c3)ccc2n1 | -6.27% |
| Cc1noc(NS(=O)(=O)c2ccc(NC(=O)NC(C)(C(F)(F)F)C(F)(F)F)cc2)c1C | 11.8% |
| COc1ccc2nc(N3C(=O)/C(=C/c4ccccc4)NC3=S)sc2c1 | -3.36% |
| CCCCC(=O)Nc1ccc(NC(=O)c2cccnc2)cn1 | -1.56% |

| SMILES | hERG current change (%, negative = inhibition) at 10uM |
| --- | --- |
| COc1ccc(NC(=O)CN2CC(c3ccccc3)CC2=O)cc1OC (stereo not drawn) | 8.33% |
| C[n+]1ccc(-c2ccccc2)c2ccccc21.[O-][Cl+3]([O-])([O-])[O-] | 18.2% |
| Cc1cccnc1NC(=O)c1csnn1 | 10.7% |
| CCS(=O)(=O)N1CCN(c2ccccc2)CC1 | 2.54% |
| COc1nc(OC)nc(N2CCC(C(=O)Nc3cccc4ccccc34)CC2)n1 | -16.3% |
| Cc1cc(OCCOCCNCc2ccccc2)ccc1C(C)C.O=C(O)C(=O)O | -30.6% |
| COc1ccccc1CC(=O)NCCc1c[nH]c2ccccc12 | 5.81% |
| O=C(c1cc(-c2ccccn2)nc2c(Cl)cccc12)N1CCN(C(=O)C2CCCO2)CC1 (stereo not drawn) | -35.8% |
| CCCCn1cnc2c([nH]c3cc(OC)ccc32)c1=O | 4.88% |
| NC1=NC(c2ccccc2)=NC1(NC(=O)c1ccccc1)C(Cl)Cl (stereo not drawn) | 17% |
| CC1=C(C(=O)OCc2ccccc2)N2C(=O)[C@@H](NC(=O)COc3ccccc3)[C@H]2SC1 | -44.5% |
| O=c1cc(CN2CCN(S(=O)(=O)c3ccccc3)CC2)nc2ccc(Cl)cn12 | -56% |
| CCOC(=O)Cn1c(=O)oc2cc(S(=O)(=O)N(C)Cc3ccco3)ccc21 | -6.02% |
| O=C1CC(N2CCCCCC2)C(=O)N1c1ccc2c(c1)OCO2 (stereo not drawn) | -1.67% |
| Cc1ccc(S(=O)(=O)N2CCN(C(=O)C3CCCCC3)CC2)cc1 | -16% |
| c1ccc(-c2nnc(SCC3CCCO3)nc2-c2ccccc2)cc1 (stereo not drawn) | -2.07% |
| Cc1ccc(NC(=O)c2ccc(OC(=O)COc3ccc(Cl)cc3C)cc2)cc1 | 5.61% |
| O=C(NCc1ccc(Cl)cc1)NCc1ccc(Cl)cc1 | 14.4% |
| Cc1nc(SCC(=O)NCC2CCCO2)c2c3c(sc2n1)CCCC3 (stereo not drawn) | -23.5% |
| O=C(NCc1ccncc1)c1cccc(F)c1 | 0.361% |
| COC(=O)CSc1nnc(CSc2nc(C)cc(C)n2)n1Cc1ccco1 | 7.23% |
